# Inconclusive results, whose numbers are uncertain, are shown with a selection of clear calls. For some of these results: Potencies of inconclusive entries are left out as doubtful fits. The source made the active and inactive calls. Unless noted, the call rests on the fitted dose curve; in most records, active means well fitted curve in the direction sought with a large enough effect; inconclusive means small, poorly fitted or top-dose-only effect, or another doubt; inactive means no such curve, though single readings can be large; an effect the other way counts as inactive or inconclusive.
# Key:
# [1] = NFAT Signaling Pathway (AID 444; active means well fitted curve in either direction with a large enough effect, not every such curve was filed as active; inconclusive means small, poorly fitted or top-dose-only effect, or another doubt;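 further: carbachol stimulus at about its EC50 of 1 µM final; on the % scale 0 is the no-effect control and ±100 the full control effect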); conditions: Jurkat NFAT-bla M1, carbachol, beta-lactamase ratio, 5 h; at 7.69 µM (top of the series) unless noted
# How it was run: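 Jurkat cells carrying an NFAT-driven β-lactamase reporter and co-transfected muscarinic M1 receptor were treated with compound plus carbachol (1 uM final, an EC50 level) for 5 h at 37 °C. CCF4 loading followed for 1 h at RT; 460/530 nm ratio gave %activity.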
# [2] = molecular target: 3',5'-cyclic-AMP phosphodiesterase 4B (Homo sapiens) (UniProt Q07343); assay: qHTS Assay for Inhibitors of PDE-IV (AID 607; active means well fitted activation curve with a large enough effect in the main read-out, with a control signal flat, not every such curve was filed as active; inconclusive means small, poorly fitted or top-dose-only effect, or effect the other way, or a change in a side signal; further: potency means the concentration at half of the fitted maximal effect); conditions: HEK293 ACTOne CNG channel cells, membrane potential fluorescence; activation (PDE inhibition): at 22.9 µM (top of the series)
# How it was run: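 Live HEK293 cells with a modified cyclic nucleotide-gated (CNG) channel report intracellular cAMP via membrane-potential dye fluorescence (ex 535/em 590 nm). Endogenous PDE-IV was targeted. Compounds were tested at up to 22.9 uM final; RO 20-1724 100 uM served as control.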
# [3] = molecular target: Cytochrome P450 3A4 (Homo sapiens) (UniProt P08684); assay: qHTS Assay for Inhibitors and Substrates of Cytochrome P450 3A4 (AID 884); conditions: recombinant CYP3A4, Luciferin-PPXE luminescence; activity change, negative = inhibition: at 57.1 µM (top of the series); further: potency means the concentration at half of the fitted maximal effect; nearly all actives have a fitted effect of over 50% in size
# How it was run: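 20 nM human CYP3A4 with 25 uM Luciferin-PPXE (at KM) in 200 mM KPO4, preincubated 10 min with compound; NADPH regeneration started a 60 min RT reaction. Luciferin detected by luminescence, normalized to 57 uM ketoconazole as full inhibition.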
# [4] = molecular target: Dual specificity protein kinase CLK4 (Homo sapiens) (UniProt Q9HAZ1); assay: qHTS Assay for Inhibitors of CDC-like Kinase 4 (Kinase-Glo Assay) (AID 1770); further: nearly all actives have a fitted effect of over 65% in size; further: potency means the concentration at half of the fitted maximal effect; on activity, negative = inhibition: on the % scale 0 is the no-effect control and ±100 the full control effect
# How it was run: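 Substrate mix (RS peptide 100 uM, ATP 1 uM) dispensed, compound pinned in, then Clk4 added to 25 nM final. Incubated 4.5 h at RT; Kinase-Glo reagent added, luminescence read after 5 min.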
# [5] = Primary qHTS for small molecule stabilizers of the endoplasmic reticulum resident proteome: Secreted ER Calcium Modulated Protein (SERCaMP) assay (AID 1508630); conditions: SH-SY5Y GLuc-SERCaMP (Gaussia luciferase released on ER calcium loss) secretion, thapsigargin, luminescence; activity change, negative = inhibition: at 38.4 µM (top of the series) unless noted; further: potency means the concentration at half of the fitted maximal effect
# How it was run: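 GLuc-SERCaMP-expressing SH-SY5Y cells, pretreated 16 h with compound, are challenged with thapsigargin to empty ER calcium stores; after 4 h, coelenterazine is added directly to the medium and luminescence is imaged.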
# [6] = molecular target: Cytochrome P450 2C9 (Homo sapiens) (UniProt P11712); assay: qHTS Assay for Inhibitors and Substrates of Cytochrome P450 2C9 (AID 883); further: potency means the concentration at half of the fitted maximal effect; nearly all actives have a fitted effect of over 60% in size
# How it was run: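 CYP2C9 deoxyluciferin hydroxylation, 37C, 60 min with NADPH regeneration; 10nM enzyme, 100uM Luciferin-H (KM). Glo detection reagent stopped reaction; luminescence normalized to sulphaphenazole (57uM) full inhibition.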
# [7] = molecular target: Ubiquitin carboxyl-terminal hydrolase 1 (Homo sapiens) (UniProt O94782); assay: Inhibitors of USP1/UAF1: Pilot qHTS (AID 504865); further: potency means the concentration at half of the fitted maximal effect;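 further: rhodamine fluorescence freed from ubiquitin-rhodamine substrate followed over time; nearly all actives have a fitted effect of over 35% in size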; on activity change, negative = inhibition: top concentration of the series differs between compounds; on the % scale 0 is the no-effect control and ±100 the full control effect
# How it was run: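 In 50mM HEPES pH 7.8 containing 0.5mM EDTA, 1mM TCEP, 0.1 mg/ml BSA and 0.01% Tween-20, 1nM USP1/UAF1 is exposed to compound for 15 min, then Ub-Rho (150nM final) is added and fluorescence is read over time.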
# [8] = molecular target: Mitogen-activated protein kinase 10 (Mus musculus) (UniProt Q61831); assay: JNK3 AlphaScreen Assay (AID 530; active means well fitted curve in either direction with a large enough effect, not every such curve was filed as active; inconclusive means small, poorly fitted or top-dose-only effect, or another doubt;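 further: kinase came from lysate of stimulated human HepG2 cells; signal reports phosphorylation of biotinylated GST-cJun 1-79 at Ser73 with 10 µM ATP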; further: potency means the concentration at half of the fitted maximal effect); conditions: JNK3 lysate, c-Jun phosphorylation; activity change, negative = inhibition: at 57.1 µM (top of the series)
# How it was run: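 JNK3 came from HepG2 lysates pre-activated with IL-1beta and TNF-alpha and phosphorylated biotinylated GST-cJun (1-79) at 10 uM ATP, pH 7.6, room temperature. Compounds were titrated. AlphaScreen signal used anti-phospho-cJun (Ser73) antibody.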
# [9] = molecular target: Dual specificity protein kinase CLK4 (Homo sapiens) (UniProt Q9HAZ1); assay: qHTS Assay for Inhibitors of CDC-like Kinase 4 (ADP-Glo Assay) (AID 1771); further: on the % scale 0 is the no-effect control and ±100 the full control effect; nearly all actives have a fitted effect of over 70% in size
# How it was run: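 Kinase reaction: Clk4 at 25 nM, RS repeat peptide substrate at 100 uM, ATP at 1 uM, 1 hr, room temperature. Product ADP detected as luciferase signal via ADP-Glo.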
# [10] = molecular target: Cytochrome P450 2C19 (Homo sapiens) (UniProt P33261); assay: qHTS Assay for Inhibitors and Substrates of Cytochrome P450 2C19 (AID 899); further: potency means the concentration at half of the fitted maximal effect; nearly all actives have a fitted effect of over 60% in size
# How it was run: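 In 50mM KPO4, the reaction held 5nM enzyme and KM-level (10uM) Luciferin-H EGE; it ran 60 min at 37C after NADPH regeneration and a 10 min compound preincubation. Luminescence values were scaled to 57uM ketoconazole as complete inhibition.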
# [11] = Stat Signaling Pathway (AID 446; active means well fitted curve in either direction with a large enough effect, not every such curve was filed as active; inconclusive means small, poorly fitted or top-dose-only effect, or another doubt;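 further: ME-180 cervical cancer cells given 40 pM IL-6 alongside compound; SIE-controlled beta-lactamase reporter measured as 460/530 nm FRET emission ratio; top concentration of the series differs between compounds; on the % scale 0 is the no-effect control and ±100 the full control effect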); conditions: ME-180 SIE beta-lactamase reporter, IL-6 stimulated, 5 h; at 7.69 µM (top of the series) unless noted
# How it was run: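 IL-6/STAT signaling read in ME-180 cells via an SIE beta-lactamase reporter. Stimulus was 40 pM IL-6 (its AC50) for 5 hrs, so both activation and inhibition register.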
# [12] = molecular target: Glucocorticoid receptor (Homo sapiens) (UniProt P04150); assay: GR-EFC Redistribution (AID 451; calls by dose curve; further: potency means the concentration at half of the fitted maximal effect); conditions: CHO-K1 GR-EFC translocation, beta-gal luminescence, 2 h
# How it was run: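 CHO-K1 cells stably expressing nuclear-localized β-gal enzyme acceptor and GR fused C-terminally to the enzyme donor fragment; ligand-driven nuclear translocation restores β-gal by complementation. Compounds titrated up to 46 uM final, 2 h at 37 °C; luminescence read.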
# [13] = molecular target: Cytochrome P450 2D6 (Homo sapiens) (UniProt P10635); assay: qHTS Assay for Inhibitors and Substrates of Cytochrome P450 2D6 (AID 891);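 further: luciferin methyl ether substrate demethylated by CYP2D6 with NADPH regeneration; potency means the concentration at half of the fitted maximal effect; nearly all actives have a fitted effect of over 60% in size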
# How it was run: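 Human CYP2D6 (5 nM) with 30 uM Luciferin-ME EGE (at Km) in 100 mM KPO4, compound preincubated 10 min, then NADPH regeneration system for 60 min at room temperature. Luciferin read by luminescence; normalized to 1.43 uM quinidine.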
# [14] = qHTS Assay for Identification of Small Molecule Agonists for Hypoxia Response Element Signaling Pathway (AID 914; active means well fitted activation curve with a large enough effect in the signal ratio, with a control signal flat, not every such curve was filed as active; inconclusive means small, poorly fitted or top-dose-only effect, or effect the other way, or a change in a side signal; the % refers to the signal ratio; further: potency means the concentration at half of the fitted maximal effect; on activation: top concentration of the series differs between compounds; % of control where 0% means no effect); conditions: ME-180 (cervical carcinoma) HRE-bla reporter, beta-lactamase ratio, CoCl2, 17 h; activation: hits give high values
# How it was run: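 HRE-bla ME-180 cells, overnight plating in Opti-MEM with 0.5% dialyzed FBS; cpd titration + EC50 CoCl2, 17 h, 37 degrees Celsius; CCF4 2.5 h RT; 460/530 nm ratio; AC50.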
# Tags describe the fitted curve by direction and shape or compound fluorescence and quenching.
# Chain of UniProt P08684 (P08684 whole entry, looked up): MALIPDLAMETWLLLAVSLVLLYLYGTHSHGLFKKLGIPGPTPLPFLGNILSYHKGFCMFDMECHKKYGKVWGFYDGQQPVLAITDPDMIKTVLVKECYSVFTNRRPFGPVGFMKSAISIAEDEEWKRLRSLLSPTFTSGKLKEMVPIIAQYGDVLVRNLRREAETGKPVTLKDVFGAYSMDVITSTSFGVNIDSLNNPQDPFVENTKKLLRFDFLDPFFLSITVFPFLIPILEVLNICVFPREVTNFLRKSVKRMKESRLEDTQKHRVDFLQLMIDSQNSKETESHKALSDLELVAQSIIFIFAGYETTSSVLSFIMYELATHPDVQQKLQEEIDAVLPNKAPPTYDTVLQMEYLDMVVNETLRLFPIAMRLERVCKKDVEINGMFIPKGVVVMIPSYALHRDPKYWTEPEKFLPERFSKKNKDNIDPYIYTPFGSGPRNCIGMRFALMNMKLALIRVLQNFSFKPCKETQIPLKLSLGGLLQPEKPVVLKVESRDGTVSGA
# Chain of UniProt Q07343 (Q07343 whole entry, looked up): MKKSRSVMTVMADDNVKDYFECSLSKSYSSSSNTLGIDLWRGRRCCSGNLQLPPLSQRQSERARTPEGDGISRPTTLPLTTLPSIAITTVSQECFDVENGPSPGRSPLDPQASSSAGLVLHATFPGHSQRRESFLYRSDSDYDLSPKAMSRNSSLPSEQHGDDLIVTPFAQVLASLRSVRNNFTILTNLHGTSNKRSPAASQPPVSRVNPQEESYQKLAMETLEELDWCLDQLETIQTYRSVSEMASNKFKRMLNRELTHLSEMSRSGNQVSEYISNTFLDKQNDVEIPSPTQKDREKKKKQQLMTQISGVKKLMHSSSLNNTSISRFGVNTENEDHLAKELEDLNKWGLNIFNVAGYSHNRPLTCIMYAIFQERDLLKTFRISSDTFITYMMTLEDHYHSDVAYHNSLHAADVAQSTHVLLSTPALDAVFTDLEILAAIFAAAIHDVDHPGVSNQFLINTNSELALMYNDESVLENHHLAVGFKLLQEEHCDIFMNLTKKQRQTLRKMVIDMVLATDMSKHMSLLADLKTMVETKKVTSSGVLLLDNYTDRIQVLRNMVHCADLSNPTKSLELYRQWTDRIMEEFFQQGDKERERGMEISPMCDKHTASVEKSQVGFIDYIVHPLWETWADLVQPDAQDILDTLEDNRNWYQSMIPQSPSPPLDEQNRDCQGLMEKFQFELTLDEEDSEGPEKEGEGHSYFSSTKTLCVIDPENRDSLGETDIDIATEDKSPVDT
# Chain of UniProt Q9HAZ1 (Q9HAZ1 whole entry, looked up): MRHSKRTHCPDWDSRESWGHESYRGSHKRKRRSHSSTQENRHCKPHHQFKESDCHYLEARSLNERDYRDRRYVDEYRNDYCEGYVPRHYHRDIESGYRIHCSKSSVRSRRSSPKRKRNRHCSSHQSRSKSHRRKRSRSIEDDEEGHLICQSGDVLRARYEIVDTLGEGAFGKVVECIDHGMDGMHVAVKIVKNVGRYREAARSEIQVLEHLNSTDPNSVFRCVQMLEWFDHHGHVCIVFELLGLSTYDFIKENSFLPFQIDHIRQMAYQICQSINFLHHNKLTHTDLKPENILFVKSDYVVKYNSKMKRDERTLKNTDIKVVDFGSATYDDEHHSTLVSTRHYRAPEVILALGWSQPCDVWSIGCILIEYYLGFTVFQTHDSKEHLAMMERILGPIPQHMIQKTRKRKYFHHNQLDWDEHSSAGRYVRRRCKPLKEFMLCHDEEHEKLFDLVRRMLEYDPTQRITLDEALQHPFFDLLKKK
# Chain of UniProt O94782 (O94782 whole entry, looked up): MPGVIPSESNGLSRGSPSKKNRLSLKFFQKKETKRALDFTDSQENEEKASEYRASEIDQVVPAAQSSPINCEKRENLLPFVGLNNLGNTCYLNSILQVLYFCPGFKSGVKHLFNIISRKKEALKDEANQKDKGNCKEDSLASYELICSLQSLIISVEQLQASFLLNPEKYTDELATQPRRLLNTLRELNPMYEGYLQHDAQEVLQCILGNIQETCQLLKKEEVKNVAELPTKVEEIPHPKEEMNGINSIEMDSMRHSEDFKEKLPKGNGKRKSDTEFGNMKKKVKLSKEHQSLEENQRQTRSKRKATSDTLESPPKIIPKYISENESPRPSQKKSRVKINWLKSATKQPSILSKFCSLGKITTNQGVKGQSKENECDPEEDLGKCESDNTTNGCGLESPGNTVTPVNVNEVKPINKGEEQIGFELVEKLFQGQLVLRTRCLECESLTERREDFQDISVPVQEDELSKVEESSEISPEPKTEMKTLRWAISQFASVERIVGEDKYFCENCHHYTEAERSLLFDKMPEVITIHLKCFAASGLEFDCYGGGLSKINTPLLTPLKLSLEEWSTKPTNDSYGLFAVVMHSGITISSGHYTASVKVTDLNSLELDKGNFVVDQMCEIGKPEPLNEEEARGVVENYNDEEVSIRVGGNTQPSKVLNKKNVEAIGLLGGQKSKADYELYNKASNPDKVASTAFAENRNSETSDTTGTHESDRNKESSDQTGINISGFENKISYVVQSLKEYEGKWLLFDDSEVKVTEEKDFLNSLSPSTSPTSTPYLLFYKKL
# Chain of UniProt P11712 (P11712 whole entry, looked up): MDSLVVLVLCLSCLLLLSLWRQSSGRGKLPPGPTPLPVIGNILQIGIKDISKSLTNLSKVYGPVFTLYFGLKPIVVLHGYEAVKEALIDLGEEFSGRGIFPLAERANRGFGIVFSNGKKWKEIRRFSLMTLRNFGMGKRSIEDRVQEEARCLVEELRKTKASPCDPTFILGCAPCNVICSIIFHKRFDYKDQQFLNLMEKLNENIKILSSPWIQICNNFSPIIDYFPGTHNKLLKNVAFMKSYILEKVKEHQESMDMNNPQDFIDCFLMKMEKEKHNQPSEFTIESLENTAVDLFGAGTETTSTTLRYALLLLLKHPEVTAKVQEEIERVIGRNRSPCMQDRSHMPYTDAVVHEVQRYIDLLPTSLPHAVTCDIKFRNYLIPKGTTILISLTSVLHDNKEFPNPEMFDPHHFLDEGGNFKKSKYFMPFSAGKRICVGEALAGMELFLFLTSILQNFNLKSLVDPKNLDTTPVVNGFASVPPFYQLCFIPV
# Chain of UniProt P10635 (P10635 whole entry, looked up): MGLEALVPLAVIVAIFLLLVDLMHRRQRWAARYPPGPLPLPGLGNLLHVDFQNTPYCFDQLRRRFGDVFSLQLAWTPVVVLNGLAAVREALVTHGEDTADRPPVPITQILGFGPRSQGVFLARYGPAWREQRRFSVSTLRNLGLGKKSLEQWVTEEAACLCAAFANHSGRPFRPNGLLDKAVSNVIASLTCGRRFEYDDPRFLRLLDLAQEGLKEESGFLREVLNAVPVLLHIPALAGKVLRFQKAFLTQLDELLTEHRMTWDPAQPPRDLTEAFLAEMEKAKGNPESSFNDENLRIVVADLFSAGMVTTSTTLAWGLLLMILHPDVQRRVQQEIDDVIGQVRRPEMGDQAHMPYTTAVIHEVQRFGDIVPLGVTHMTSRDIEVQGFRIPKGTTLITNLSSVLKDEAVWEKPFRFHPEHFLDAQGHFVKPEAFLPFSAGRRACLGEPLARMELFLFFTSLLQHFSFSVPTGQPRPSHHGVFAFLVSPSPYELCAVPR
# Chain of UniProt P33261 (P33261 whole entry, looked up): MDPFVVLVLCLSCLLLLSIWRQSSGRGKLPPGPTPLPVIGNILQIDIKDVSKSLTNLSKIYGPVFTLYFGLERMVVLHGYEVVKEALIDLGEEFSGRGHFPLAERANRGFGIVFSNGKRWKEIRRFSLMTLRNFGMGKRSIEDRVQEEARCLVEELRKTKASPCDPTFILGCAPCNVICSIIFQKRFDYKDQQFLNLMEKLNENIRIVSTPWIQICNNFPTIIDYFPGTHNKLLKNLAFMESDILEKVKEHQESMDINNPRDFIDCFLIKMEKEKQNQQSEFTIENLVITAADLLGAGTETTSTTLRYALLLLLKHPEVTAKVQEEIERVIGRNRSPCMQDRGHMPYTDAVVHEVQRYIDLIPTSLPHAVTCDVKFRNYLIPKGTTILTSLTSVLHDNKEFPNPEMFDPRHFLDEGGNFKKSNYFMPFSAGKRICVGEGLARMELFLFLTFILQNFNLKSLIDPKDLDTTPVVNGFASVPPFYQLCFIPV
# Chain of UniProt P04150 (P04150 whole entry, looked up, the tested form may be a part): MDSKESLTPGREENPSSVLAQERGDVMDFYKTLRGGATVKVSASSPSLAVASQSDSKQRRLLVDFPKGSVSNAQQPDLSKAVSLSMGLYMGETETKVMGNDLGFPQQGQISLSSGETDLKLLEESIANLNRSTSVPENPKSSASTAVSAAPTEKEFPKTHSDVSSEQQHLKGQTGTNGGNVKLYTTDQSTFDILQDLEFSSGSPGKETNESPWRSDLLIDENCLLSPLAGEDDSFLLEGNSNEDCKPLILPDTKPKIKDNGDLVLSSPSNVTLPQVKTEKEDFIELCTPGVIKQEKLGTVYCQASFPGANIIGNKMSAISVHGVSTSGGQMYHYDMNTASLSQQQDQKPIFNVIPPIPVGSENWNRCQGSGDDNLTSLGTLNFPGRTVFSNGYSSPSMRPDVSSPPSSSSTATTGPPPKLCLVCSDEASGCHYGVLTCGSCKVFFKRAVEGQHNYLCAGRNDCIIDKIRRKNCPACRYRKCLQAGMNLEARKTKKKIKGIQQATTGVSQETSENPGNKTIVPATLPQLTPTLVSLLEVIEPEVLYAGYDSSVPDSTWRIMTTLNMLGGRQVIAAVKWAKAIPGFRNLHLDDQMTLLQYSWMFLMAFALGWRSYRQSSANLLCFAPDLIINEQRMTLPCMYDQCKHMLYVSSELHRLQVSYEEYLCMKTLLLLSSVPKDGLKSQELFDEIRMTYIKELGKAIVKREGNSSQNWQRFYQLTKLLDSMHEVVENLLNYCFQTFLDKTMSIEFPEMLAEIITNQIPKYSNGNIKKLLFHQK
structure (smiles),measurement,setting,value
COc1ccc(CNc2ccnc(-c3ccccc3CN(C)C)n2)c(OC)c1,"activity change, negative = inhibition",[1],inactive: -25.3%
same,Potency,[2],"inconclusive [rising, partial curve]"
same,Potency,[3],active: 5.01 µM
same,Potency,[4],inactive
same,Potency,[5],"inconclusive [inhibitor, single point]"
CCNc1ncc2nc(CCc3ccccc3)c(=O)n(C3CC3)c2n1,Potency,[2],"inconclusive [activator, partial curve]"
same,Potency,[6],"inconclusive [inhibitor, partial curve]"
same,Potency,[4],inactive
same,Potency,[5],"inconclusive [inhibitor, single point]"
O=c1cnc2cnc(N3CCOCC3)nc2n1Cc1cccs1,Potency,[4],"inconclusive [falling, partial curve]"
same,Potency,[7],inactive
same,Potency,[5],"inconclusive [inhibitor, single point]"
CN1CCN(c2ncncc2-c2ccc(N(C)C)cc2)CC1,"activity change, negative = inhibition",[1],inactive: 6.42%
same,Potency,[8],inactive
same,Potency,[3],"inconclusive [inhibitor, partial curve]"
same,Potency,[4],inactive
same,Potency,[5],"inconclusive [inhibitor, partial curve, poor fit]"
COc1ccccc1CNc1ncncc1-c1ccc2c(c1)OCO2,"activity change, negative = inhibition",[1],inactive: -11.1%
same,Potency,[2],"inconclusive [rising, single point]"
same,Potency,[4],active: 2.24 µM
same,Potency,[5],"inconclusive [inhibitor, single point]"
COc1ccc(-c2nc3cnc(OC)nc3n(-c3ccc(OC)cc3)c2=O)cc1,Potency,[9],inactive
same,Potency,[5],"inconclusive [inhibitor, single point]"
COCCn1c(=O)c(-c2cccc(C#N)c2)nc2cnc(Oc3cccc(Cl)c3)nc21,Potency,[9],inactive
same,Potency,[5],"inconclusive [inhibitor, single point]"
CS(=O)(=O)Nc1cccc(-c2cncnc2Nc2ccccc2)c1,Potency,[3],active: 0.501 µM
same,Potency,[4],"inconclusive [falling, partial curve]"
same,Potency,[5],inactive
COc1cccc(-c2cncnc2NCc2ccccc2OC)c1,Potency,[2],"inconclusive [rising, single point]"
same,Potency,[6],"inconclusive [inhibitor, partial curve]"
same,Potency,[4],active: 14.1 µM
same,Potency,[5],"inconclusive [inhibitor, single point]"
COc1cccc(-c2ccc3ncnc(N4CCNCC4)c3c2)c1,Potency,[2],"inconclusive [activator, single point]"
same,Potency,[10],active: 3.16 µM
same,Potency,[4],active: 1.78 µM
same,Potency,[5],"inconclusive [inhibitor, partial curve, poor fit]"
COc1ccccc1-c1cc(Nc2ccn[nH]2)ncn1,"activity, negative = inhibition",[11],inactive: 6.94%
same,Potency,[2],"inconclusive [activator, partial curve]"
same,Potency,[4],"inconclusive [falling, partial curve]"
same,Potency,[5],inactive
COc1cccc(-c2nc(N(C)C)c3ccccc3n2)c1,"activity, negative = inhibition",[11],inconclusive: -52.6% [inhibitor]
same,Potency,[4],active: 11.2 µM
same,Potency,[7],"inconclusive [inhibitor, partial curve, poor fit]"
same,Potency,[5],"inconclusive [inhibitor, single point]"
COc1ccccc1CNc1nc(-c2ccoc2)nc2ccccc12,"activity change, negative = inhibition",[1],inactive: -19.8%
same,Potency,[12],inconclusive [single point]
same,Potency,[2],"inconclusive [activator, partial curve]"
same,Potency,[4],"inconclusive [falling, single point]"
same,Potency,[5],"inconclusive [inhibitor, single point]"
CN(C)c1ncc2nc(CCc3ccccc3)c(=O)n(CCc3ccccc3)c2n1,"activity change, negative = inhibition",[1],inactive: -22.4%
same,Potency,[8],"inconclusive [activator, partial curve]"
same,Potency,[2],"inconclusive [activator, partial curve]"
same,Potency,[3],active: 6.31 µM
same,Potency,[13],"inconclusive [inhibitor, full curve]"
same,activation,[14],inactive: 21.3%
same,Potency,[4],inactive
same,Potency,[5],"inconclusive [inhibitor, single point]"
COc1cccc(-c2ccc3ncnc(NCCNC(C)=O)c3c2)c1,"activity change, negative = inhibition",[1],inactive: 21%
same,activation,[14],inactive: 5.52%
same,Potency,[4],active: 0.355 µM
same,Potency,[5],"inconclusive [inhibitor, single point]"
Cc1cnc(CNc2ncnc3ccc(-c4ccccc4C(F)(F)F)cc23)cn1,Potency,[14],"inconclusive [activator, single point]"
same,Potency,[4],"inconclusive [falling, partial curve]"
same,Potency,[5],"inconclusive [inhibitor, single point]"

# Source: PubChem BioAssay (NCATS)
